Source: article PMC12136788
The other results are listed elsewhere or left out.

B1: chr1:163112212:163112213:-_ENSG00000143248_ENST00000313961|hu_hu|hu_hu_hu_mus_False|18_28 (ssRNA)
RNA: GGGAGUUCUACAGUCCGACGAUCUUUUAUUAUCAGUAAGAGUGAGUUACAUACUAGGCAAAGUAUUGGAUACAAUAAUCAGGAAACAAACACUAUUGGUCCAGAAUUUAAAAUAUAUGGGAUAAAUUGCUGGCACAGGACUUACAACAGAGGAUUGAGCAUCA
B2: chr18:65376317:65376318:+_ENSMUSG00000024589_ENSMUST00000163516|mus_mus|FALSE|FALSE (ssRNA)
RNA: GGGAGUUCUACAGUCCGACGAUCUGCUAUACCAACAGAAAACUAUCCCUUUCCUAGGAAACACUAGACAGGCUCAUGUCCUAACGCUACAGCUGCUUCUCUGGCACACUGAAAACACUCUGGGGUGGAGUGUGCAUACACAGACAACAGAGGAUUGAGCAUCA
B3: 118376450_118376570_9926_CDS_ENSG00000118058_ENST00000534358|human|control|control (ssRNA)
RNA: GGGAGUUCUACAGUCCGACGAUCUGUUGAUGUGCCUGCCGCUGUGGCAGCAGUUCCUCCCACACUCUGUGGUAACAGGGGUGCCGGUUCAAAAUACAUGAUGCUAGAUUUAGAUCUUUUUAUGAUGUUGGGGACAGUUCGGUGCAACAGAGGAUUGAGCAUCA
B4: 101925690_101925935_438_3pUTR_ENSMUSG00000017314_ENSMUST00000017458|mouse|control|control (ssRNA)
RNA: GGGAGUUCUACAGUCCGACGAUCGGCCUGGGCUUGGGGGUGGUGUCUCAUAGGUCUUUGAAGCCACUGAGUCAUGUGUCUCCAGGAGGGACUGGAAGUGGGGCUCCUGGAGGAUGCGUGCCAGCUCUGCAGCGGUGCUGCUCUCAACAGAGGAUUGAGCAUCA
B5: 36137377_36137497_4277_3pUTR_ENSG00000100320_ENST00000405409|human|control|control (ssRNA)
RNA: GGGAGUUCUACAGUCCGACGAUCGUAAGUUUUCUGGAAUUAUCAGCCAGCAUCCUCUAACAAACUCACGAAAUGCCAGACUCCUCUGACUCUCUUUUUUAAUACAGUGAGAACCAGAGUCAGGAACAGACAAGCAGUGCUGCUCAACAGAGGAUUGAGCAUCA
B6: chr1:59925254:59925255:+_ENSMUSG00000067336_ENSMUST00000087435|mus_mus|FALSE|FALSE (ssRNA)
RNA: GGGAGUUCUACAGUCCGACGAUCAUCUUGUUCUGAACAUGGAUUGCUGUUGUUGUUAUUGGAAUUUGUUCGGCCACCUUCUAAUGGCCGUUCCCUCCUAUCUACCAAACGAUCCAGAACCCCUUCAUCAUGGCCAGCCUGUUGCAACAGAGGAUUGAGCAUCA
B7: chr9:4385736:4385737:+_ENSMUSG00000041124_ENSMUST00000047173|mus_mus|motif|central (ssRNA)
RNA: GGGAGUUCUACAGUCCGACGAUCCUUGGCACUAAUGACAUCUUGGACUGGGUAAUUCUUUCUUGUGAAGACAACGGUGCGGAACAUGGUGAAGCCUCUCCUGAGGCUGGUAGCAUCCUACACCCAUUUACUUUGACCACCAAACAACAGAGGAUUGAGCAUCA
B8: 33587546_33587666_2174_3pUTR_ENSMUSG00000028274_ENSMUST00000108153|mouse|control|control (ssRNA)
RNA: GGGAGUUCUACAGUCCGACGAUCAUCUAUUCACAUACAAACAAGGCCUCUAUUUCAUUAACUUCAAUCUGAUUUAAACCUUUGGGUAUUUCAAUCUGUAGACUCCACAGGGUAAGGCUGAAUUUAUCAGGUAUAAAUAAAAUACAACAGAGGAUUGAGCAUCA
B9: chr2:216981417:216981418:+_ENSG00000079246_ENST00000392132|hu_hu|hu_hu_hu_mus_True|68_88 (ssRNA)
RNA: GGGAGUUCUACAGUCCGACGAUCCUGAUACUGGUCCUUGCCAGCAAGGGGAUUGUCAGUGCCAUCUGUACCAAACAGGACUAACGCAAUCUCAUCUUUGCUCUCCGAAAAUACCUGUCGUUGGACAAACAUAGUCAUCACUUUCAACAGAGGAUUGAGCAUCA
B10: chrX:71549400:71549401:+_ENSMUSG00000019087_ENSMUST00000019231|mus_hu|mus_mus_mus_hu_False|8_98 (ssRNA)
RNA: GGGAGUUCUACAGUCCGACGAUCGCAGUAGGAAGAGCAAACCUUUCCAGUCCAGUGCGCUGCAGGGUGGGAAAGCAACAACACGGACACCGUCCCACCCUCAACCCCCCCACUGGCACAGGGUCACAUCUGGGUCAUCAAAGACAACAGAGGAUUGAGCAUCA
B11: chr2:153055717:153055718:-_ENSMUSG00000051413_ENSMUST00000056924|mus_hu|FALSE|FALSE (ssRNA)
RNA: GGGAGUUCUACAGUCCGACGAUCCUCAAGGGUCCCACAGUGGAGGUCCCUGAGCUACCUCCCUUCCGUGAGUGGGAAGAGUGAAGCCCAUGAAGAACUGAGAUGAAGCAAGGAUGGGGUUCCUGGGCUCCAGGCAAGGGCUGUCAACAGAGGAUUGAGCAUCA
B12: chr14:102449733:102449734:+_ENSG00000197102_ENST00000360184|hu_hu|FALSE|FALSE (ssRNA)
RNA: GGGAGUUCUACAGUCCGACGAUCCAAUACCUGAAGUUUCUCAUACUCAUCAUCCCAAGUCUGAAAAACUUCAAAGCAUGCUACCAUAACUUUUUCAAAUUCUUCAUAAGCAACAUGCAUCAAUUUCCUAGUGCCCAAUACUUUCAACAGAGGAUUGAGCAUCA
B13: chr9:109012998:109012999:+_ENSMUSG00000053646_ENSMUST00000072093|mus_hu|FALSE|FALSE (ssRNA)
RNA: GGGAGUUCUACAGUCCGACGAUCGUUCCCCAUCUGCACCGUGAACUCAGGCAAAGAGUCAGGUGCCUCUCGGAGGGCAUGGUGCCGUGGCAGGGGCUGCUCCACGGGGGGCUCGCAGUACAGGUGGUGCCGCGUCAGCGUCUUCAACAGAGGAUUGAGCAUCA
B14: 135070555_135070675_2121_3pUTR_ENSMUSG00000028165_ENSMUST00000029815|mouse|control|control (ssRNA)
RNA: GGGAGUUCUACAGUCCGACGAUCGACGAUUCUAUUCAAAGCCUCAAUUAAGAAAAGAUCAAUUAAAAGCAAAGCAUAUAAAGGUUUGUUGCGGGGGGGGGGGGGGGGGAAGAGAAAUAGAGAGUAAAAGCAGCAACCUUUGCUCAACAGAGGAUUGAGCAUCA
B15: 19964705_19964825_1172_3pUTR_ENSMUSG00000020152_ENSMUST00000000137|mouse|control|control (ssRNA)
RNA: GGGAGUUCUACAGUCCGACGAUCCACCAAGUUUCUCCAGCACACGGACACCCUUUUCUUGGUACUCUUGUCUGGUCAUCCAAAAGUUGUCUUUGUCUUUCAUGAUGUCUGCUAGGACUGCGCCACCCAAGAACACCAUGUGCUCAACAGAGGAUUGAGCAUCA
B16: chr16:36023280:36023281:+_ENSMUSG00000022905_ENSMUST00000004054|mus_hu|FALSE|FALSE (ssRNA)
RNA: GGGAGUUCUACAGUCCGACGAUCUGUCUGAAUAUCAUCCCCUGUGACAAUGUUUCCCACAGCUCGCAAAGCAGGAGAAACCACUUUAUAAUCAUUAUGCAUCAGCAGUUCCACAAGUCUCCUACAUACUCCCGCAUCGAUGACCAACAGAGGAUUGAGCAUCA
B17: chr12:89743083:89743084:-_ENSG00000139318_ENST00000308385|hu_mus|FALSE|FALSE (ssRNA)
RNA: GGGAGUUCUACAGUCCGACGAUCCUUUCACGUAGACUGCAGGGAGUCCACCUGGUAGACGUUCUGGUUGGAGGGCGUGGUGAAGUACAGCUGCGGAGUGGGGACACGGUUGUCACAAGGGCUGCUCAGUCCCAGGGUCCUUUCCAACAGAGGAUUGAGCAUCA
B18: chr6:38652254:38652255:-_ENSG00000124767_ENST00000373365|hu_hu|hu_hu_hu_mus_False|8_28 (ssRNA)
RNA: GGGAGUUCUACAGUCCGACGAUCCGAGAACUUCAUAGCAGGGAAGUCAAGCUUCUGCAGGAGGGUCAGUCCAAGAACCCUCGUAUAAAAAUCCAGGGACUUCUUAGGAUCCUUCACUCUUAGCAUCGUCUGCUGCAGUAGAAACAACAGAGGAUUGAGCAUCA
B19: chr7:91030085:91030086:-_ENSMUSG00000070462_ENSMUST00000094216|mus_hu|FALSE|FALSE (ssRNA)
RNA: GGGAGUUCUACAGUCCGACGAUCAAAUACUCCAGUACAUGCAAGGUAAAAACUUGACGUUGGGGGAAAAAAAAAUCACUCUAUAGUGUAAAUUAAAAAAACACACGCUCACAGUAGCUUCCCCCCAUUUGCAAAUCACAUGGCCAACAGAGGAUUGAGCAUCA
B20: chr15:66811301:66811302:+_ENSG00000174442_ENST00000446801|hu_mus|FALSE|FALSE (ssRNA)
RNA: GGGAGUUCUACAGUCCGACGAUCCUCAGCUCCUAGCCAACAGGUACCUUCAGGAUCUGAACCGUCACAUCUCACCCAAAGAGGAGGAAGGGCUGUCACUGGCUGCUUAAUCUUCAGAUGAGUCAUAUUAGGAUUGUGAGCCAUCAACAGAGGAUUGAGCAUCA
B21: chr7:117185563:117185564:+_ENSMUSG00000066232_ENSMUST00000084731|mus_hu|FALSE|FALSE (ssRNA)
RNA: GGGAGUUCUACAGUCCGACGAUCGGGCUUCAGAUUCUUCCAGGUGAGAGCAUGAGAAACUCCUUGAUUAAUAUAAUUUAAUGUCUGUUGUAAAACUCGAGGAGCCAUAUAUUGCUUCUCCUUGUACUGAUAUAACACCUUCAACAACAGAGGAUUGAGCAUCA
B22: chr7:135612270:135612271:-_ENSG00000105887_ENST00000393085|hu_mus|hu_hu_hu_mus_False|48_48 (ssRNA)
RNA: GGGAGUUCUACAGUCCGACGAUCGUUUUUUUCUGAGAUGUUAAAUAGUACUUCAGUGGAAAACAAAACUUAACCUUUUAUUAAUGCAUGUAGUACCAAAAGCAGACAUUUUAGCUUCAUUUAUUCAAAAAUAUUAACAUUAAGCAACAGAGGAUUGAGCAUCA

biological target: T1, UNK ZnF1-3 (human, UniProt Q9C0B0 31-174); test: nsRBNS (natural sequence RNA bind-n-seq); RBNS binding buffer (assumed for nsRBNS): 25 mM Tris pH 7.5, 150 mM KCl, 3 mM MgCl2, 0.01% Triton X-100, 500 ug/ml BSA, 20 U/ml SUPERase-In, 4 C; UNK is unkempt and MSI1 is Musashi-1; names of the RNAs are library labels; protein concentration not given here; high values mean tight binding
T1 sequence: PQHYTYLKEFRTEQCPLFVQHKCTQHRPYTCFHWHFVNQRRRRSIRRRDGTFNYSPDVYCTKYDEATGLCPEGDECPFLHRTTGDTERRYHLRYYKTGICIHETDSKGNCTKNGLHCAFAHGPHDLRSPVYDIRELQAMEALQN

Binder | binding signal [enrichment R]
B1 | 1.65
B2 | 0.875
B3 | 0.587
B4 | 0.781
B5 | 0.702
B6 | 0.568
B7 | 0.756
B8 | 1.17
B9 | 0.95
B10 | 0.928
B11 | 0.999
B12 | 0.609
B13 | 0.43
B14 | 0
B15 | 0.735
B16 | 1.22
B17 | 1.04
B18 | 0.636
B19 | 2.29
B20 | 1.52
B21 | 1.43
B22 | 0.738
